Measured values from PMC4336329 (PLoS ONE, 2015).
Out of some 310,000 compounds screened, about 2,200 (0.71%) showed an effect of 50% or more. Effects have a minus sign here. This is one part of the list.

Target: human ether-à-go-go-related gene (hERG) potassium channel (human, UniProt Q12809)
Assay: primary screen, population patch clamp on CHO cells stably expressing hERG

human ether-à-go-go-related gene (hERG) potassium channel, sequence (Q12809 whole entry, looked up): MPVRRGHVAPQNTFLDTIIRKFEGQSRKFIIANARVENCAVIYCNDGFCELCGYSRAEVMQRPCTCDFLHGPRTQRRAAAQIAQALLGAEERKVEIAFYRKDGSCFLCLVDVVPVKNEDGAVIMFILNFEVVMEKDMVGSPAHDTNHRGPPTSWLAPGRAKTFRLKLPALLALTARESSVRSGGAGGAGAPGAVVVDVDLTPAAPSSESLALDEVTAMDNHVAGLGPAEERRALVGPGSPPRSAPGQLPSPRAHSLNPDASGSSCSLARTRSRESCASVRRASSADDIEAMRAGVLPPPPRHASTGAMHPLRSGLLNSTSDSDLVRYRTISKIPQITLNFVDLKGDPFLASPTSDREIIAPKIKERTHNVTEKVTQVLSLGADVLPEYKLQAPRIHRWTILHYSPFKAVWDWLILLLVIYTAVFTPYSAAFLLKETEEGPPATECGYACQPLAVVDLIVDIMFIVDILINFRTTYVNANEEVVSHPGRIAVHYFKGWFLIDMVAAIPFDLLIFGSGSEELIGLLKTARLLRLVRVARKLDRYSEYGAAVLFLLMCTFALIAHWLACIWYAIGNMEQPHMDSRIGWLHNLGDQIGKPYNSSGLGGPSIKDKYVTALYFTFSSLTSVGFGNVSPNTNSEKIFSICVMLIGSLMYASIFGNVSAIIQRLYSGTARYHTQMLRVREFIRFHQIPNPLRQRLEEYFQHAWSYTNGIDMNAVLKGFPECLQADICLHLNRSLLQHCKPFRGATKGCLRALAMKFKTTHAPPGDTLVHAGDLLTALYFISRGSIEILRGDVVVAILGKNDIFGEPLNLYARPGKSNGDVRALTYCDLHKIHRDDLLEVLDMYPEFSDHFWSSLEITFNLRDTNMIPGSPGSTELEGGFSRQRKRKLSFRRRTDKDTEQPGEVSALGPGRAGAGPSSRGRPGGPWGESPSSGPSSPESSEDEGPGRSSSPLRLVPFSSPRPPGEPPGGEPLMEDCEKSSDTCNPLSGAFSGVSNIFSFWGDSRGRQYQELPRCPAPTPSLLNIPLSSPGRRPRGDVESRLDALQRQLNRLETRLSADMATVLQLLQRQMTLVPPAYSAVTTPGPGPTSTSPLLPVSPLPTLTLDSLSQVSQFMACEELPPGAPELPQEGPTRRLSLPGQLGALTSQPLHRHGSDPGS

SMILES | hERG current change (%, negative = inhibition) at 1uM
CCC(NC(=O)CCl)c1ccc(C)cc1 (centres unmarked) | 13.3%
C=CCNC(=O)C1CC2c3ccccc3C1c1ccccc12 (centres unmarked) | 15.8%
CCC(=O)Nc1ccc(C(=O)c2ccccc2)cc1 | -3.28%
CC(C(=O)O)n1nc(-c2ccccc2)c2ccccc21 (centres unmarked) | 11.5%
Cc1ccc(S(=O)(=O)NCC(=O)N2CCOCCOCCOCC2)cc1 | 4.03%
CCc1ccccc1NC(=O)C1CCCC1 | 12.8%
CCOc1ccc(NC(=O)CCNS(=O)(=O)c2ccc3c(c2)c(=O)n(C)c(=O)n3C)cc1 | 19%
CS(=O)(=O)O.c1ccc(-c2ccc3c(c2)c2c4n3CCN=C4CCC2)cc1 | 2.12%
CC(=O)N1N=C2C3CCN(CC3)C2C1c1ccccc1 (centres unmarked) | 15.5%
CC1C(c2ccccc2)=[N+]([O-])C2(CCCCC2)N1O (centres unmarked) | 6.07%
COC(=O)c1cc(C(=O)OCC(=O)NNC(=O)c2cccs2)cc([N+](=O)[O-])c1 | 0.0453%
CCOc1cc(/C=C2/SC(=Nc3ccccc3)N(Cc3cccnc3)C2=O)ccc1OCC#N | 9.81%
O=C(Cn1cnc2ccccc2c1=O)NC1CCS(=O)(=O)C1 (centres unmarked) | 8.49%
COc1ccccc1CNC(=O)CN(C)Cc1ccc(SC)cc1 | -7.53%
Cc1ccc2c(c1)C=CC(C)N2C(=O)c1ccccc1 (centres unmarked) | 1.73%
COc1ccc(CCc2nnc(CCC(=O)NCc3ccc4ncccc4c3)o2)cc1 | 11.7%
NC(=O)c1ccccc1OCC(=O)N1CCCc2ccccc21 | 11.8%
COc1ccc(NC(=O)Nc2cccc3ccccc23)cc1OC | 9.56%
O=C(COc1ccccc1-c1ccccc1)N/N=C/c1cccnc1 | 2.3%
CC(C)Cn1c(N)c(C(=O)COC(=O)c2cccc(Cl)c2)c(=O)n(C)c1=O | 4.97%
NC(=O)C1=C[C@@H](c2ccc3c(c2)OCO3)C[C@@H](OCCCCO)O1 | 8.49%
COCC(C)NC(=O)Cc1ccc(F)cc1 (centres unmarked) | 14.5%
CCCN1Cc2cccc(C(=O)NC(C)c3cccs3)c2C1=O (centres unmarked) | -0.477%

SMILES | hERG current change (%, negative = inhibition) at 1uM
COC(=O)C1=CN(c2ccc(Cl)cc2)C=C(C(=O)OC)C1c1ccc([N+](=O)[O-])cc1 | 11.8%
O=C(/C=C/c1cccc([N+](=O)[O-])c1)N1CCN(c2ccccn2)CC1 | 1.34%
C(=N\n1cnnc1)/c1cccn1-c1ccccc1 | 6.03%
CC(=O)N1c2ccc(S(=O)(=O)N3CCCC(C(=O)NCc4ccccc4)C3)cc2CC1C (centres unmarked) | 9.9%
Cc1ccccc1OC(C)c1nc(-c2ccccc2)no1 (centres unmarked) | 2.6%
Cc1nn(-c2ccccc2)c(C)c1/C=N/NC(=O)c1cccs1 | 4%
CCN1CCN(S(=O)(=O)c2ccc(Cl)c(C(=O)N(C)Cc3cccc(Cl)c3Cl)c2)CC1 | -11.6%
CCOc1ccccc1NC(=O)CC1SC(=N)N(c2ccccc2)C1=O (centres unmarked) | 7.17%
Nc1nc(NCC2CCCO2)nc(Nc2ccccc2)c1[N+](=O)[O-] (centres unmarked) | -2.16%
CC(=O)Oc1ccc(-c2cccc(C(=O)O)c2)cc1 | 11.3%
CC(C)(C)NC(=O)COc1ccc(CNCc2cccnc2)cc1.Cl | 1.68%
COC(=O)c1ccc(NC(=O)COc2cccc3c2OC(C)(C)C3)cc1 | 3.11%
CCC(=O)n1nc(-c2ccccc2)nc1SCC(=O)Nc1ccc(C)cc1 | 8.41%
C=CCOc1ccc(C(=O)CC)cc1OC | -7.9%
CS(=O)(=O)N1CCN(C(=O)c2ccc(Cl)s2)CC1 | 8.31%
CCS(=O)(=O)Nc1ccc2c(c1)OCO2 | 18%
CN(CC1CCOCC1)C(=O)CC1C(=O)NCCN1CC1CCCCC1 (centres unmarked) | 11.9%
S=C(NCC1CCCO1)N1CCN(Cc2ccccc2Cl)CC1 (centres unmarked) | 11.5%
O=S1(=O)CCOC[C@H](c2ccccc2)N1Cc1ccccc1 | 10.4%
Cn1c(-c2ccc3nc(N)sc3c2)nc2cc(N)ccc21 | 6.08%
CN(Cc1nc(-c2ccccc2)no1)C(=O)c1ccc2c(c1)OCO2 | -3.39%
CN(C)Cc1cc2ccccc2c2c1COC2 | 7.63%
Cc1ccccc1NCc1nc2ccccc2n1C | 14.9%

SMILES | hERG current change (%, negative = inhibition) at 1uM
Cc1c(N=C2N=C(NC(=O)c3ccc(F)cc3)c3ccccc32)c(=O)n(-c2ccccc2)n1C | 1.94%
CC(C)(C)NC(=O)c1ccccc1-c1nc2ccccc2s1 | 5.8%
C=CCSC1=C(C#N)C(c2ccccc2C)CC(=O)N1 (centres unmarked) | 5.59%
CCOC(=O)Cc1ccc(NS(=O)(=O)c2ccc(SC)cc2)cc1 | 7.39%
CCOC(=O)c1ccc2nc(Nc3nc4ccc(F)cc4s3)sc2c1 | 2.31%
Nc1n[nH]c2c1C1(CCCCC1)Cc1ccccc1-2 | 11.7%
O=C(Cn1cnc2cc([N+](=O)[O-])ccc2c1=O)NC(=O)NCc1ccccc1 | 9.49%
CCOC(=O)COc1ccccc1C1Nc2ccccc2C(=O)N1c1cccc(Cl)c1 (centres unmarked) | 1.92%
Cc1sc2nc(SCC(=O)N(CCO)CCO)nc(N)c2c1C | 11.2%
Cc1cc(=O)n(C(NC(=O)c2ccccc2)C(=O)c2ccccc2)cn1 (centres unmarked) | 10.2%
CCCN(CCC)S(=O)(=O)c1ccc(C(=O)NCc2n[nH]c(=S)n2-c2ccc(Cl)c(Cl)c2)cc1 | 13.4%
COc1cc2c(cc1NC(=O)CSc1nccn1C)oc1ccccc12 | 19.9%
O=C(COc1ccccc1)Nc1nc(-c2cccnc2)cs1 | 0.973%
Cc1ccc(S(=O)(=O)N(C)C)cc1NC(=O)COC(=O)CNC(=O)C12CC3CC(CC(C3)C1)C2 | 14.4%
C=CCN(CC=C)S(=O)(=O)c1ccc2nsnc2c1 | 9.84%
Cc1cc(OCCN2CC(C)OC(C)C2)ccc1[N+](=O)[O-].O=C(O)C(=O)O (centres unmarked) | -5.36%
COc1ccc(S(=O)(=O)N(C)c2ccc(C(=O)N3CCN(C)CC3)cc2)cc1 | 14.2%
CC1CCN(C(=O)CN2C(=O)NC(c3ccccc3)(c3ccccc3)C2=O)CC1 | 4.82%
COc1ccc2c(CC(=O)N3CCc4cc(OC)c(OC)cc4C3)coc2c1 | 12.7%
CCN(CC)C(=O)C1CCN(Cc2cccc(OCc3ccccc3)c2)CC1.O=C(O)C(=O)O | -12.6%
Cc1nn(-c2ccccc2)nc1C(=O)Nc1ccc2c(c1)OCCO2 | 6.18%
CCSc1nc(C2CC2)cc(-c2ccco2)c1C#N | 11%
CCN(CC)CCNc1ncnc2c1sc1nc(N3CCOCC3)c3c(c12)CCCC3 | 4.99%

SMILES | hERG current change (%, negative = inhibition) at 1uM
O=C(NC(=S)Nc1ccccc1)c1cc([N+](=O)[O-])ccc1N1CCOCC1 | 16.5%
CCOP(=O)(OCC)C(O)c1ccccc1 (centres unmarked) | 15.4%
NS(=O)(=O)c1ccc(CCNC(=S)Nc2ccc(S(N)(=O)=O)cc2)cc1 | 9.85%
Cc1ccc2nc(-c3ccsc3)c(NC3CCCC3)n2c1 | 15%
Cc1ccccc1-c1nn2c(-c3ccccc3)nnc2s1 | 6.92%
CCOC(=O)C1(CCOc2ccccc2)CCN(Cc2cccc3nonc23)CC1 | 2.95%
CCCCn1c(N)c(NCC(C)C)c(=O)[nH]c1=O | 16.3%
O=C(COC(=O)c1cc(S(=O)(=O)N2CCOCC2)ccc1Cl)NCc1ccc2c(c1)OCO2 | 9.97%
COc1cccc(NC(=O)CN(C)CC(=O)Nc2ccc3c(c2)CCC3)c1 | 11.7%
Cc1cccc2cc(CN(Cc3ccco3)S(=O)(=O)c3ccc4c(c3)OCCO4)c(=O)[nH]c12 | 10.5%
CC(C)NC(=O)COc1ncnc2sccc12 | 11.6%
CCOCCn1c(C(C)O)nc2ccccc21 (centres unmarked) | 10.3%
O=C(COC(=O)Cc1cccs1)NCC(=O)Nc1ccc(F)cc1 | 0.811%
O=C1/C(=C\c2ccsc2)N2CCC1CC2 | 8.62%
Cc1ccc2[nH]c(=O)c(CN(CCN3CCOCC3)C(=O)Nc3ccc(F)cc3)cc2c1 | -13.4%
O=C(NCCCN1CCCC1=O)C(=O)NCC1OCCN1S(=O)(=O)c1ccc(Br)cc1 (centres unmarked) | 12.7%
O=C(CSc1nnc(-c2ccco2)o1)NCC(=O)c1ccccc1 | -1.65%
CCn1c(SCC(=O)Nc2cccc(NC(C)=O)c2)nnc1C(C)C | 14.2%
COCCc1nc2ccc(C(=O)N3CCCC(CCCO)C3)cc2o1 (centres unmarked) | 16.9%
Cc1nc2c(nnn2Cc2c(Cl)cccc2Cl)c(=O)[nH]1 | 13.9%
CN(C)CCNCc1ccccc1OC1CCCC1.Cl | 0.0121%
CCN(CC(=O)NCc1cccs1)C(=O)c1ccc(OC)c(OC)c1 | 10.7%
CN(C)S(=O)(=O)c1ccc(/C(O)=C2/C(=O)C(=O)N(Cc3cccnc3)C2c2ccncc2)cc1 (centres unmarked) | 22.9%
